Consider 89 sequences from the supplement of paper PMC11417369.

This is one part of the list.

This experiment concerns PfSIP2 AP2 domain 1 (GST-tagged). Briefly: gcPBM binding intensity (ln(normalized median fluorescence intensity)); higher = stronger DNA binding. In short, it runs like this:
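GST-fused DNA-binding domains of P. falciparum, expressed in E. coli, were applied at about 25 μg on average for 1 h to an Agilent 4 × 180k array of primer-extended double-stranded 36-bp intergenic genomic probes and negative controls. Binding intensity is the highest Masliner-normalised natural-log median intensity across replicate spots of either probe orientation, measured with Alexa488 anti-GST antibody and a 488 nm scan.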
Regarding “TTTTGTATTTATGGATGTACATAATATGTTTTAAAC [XGTACX_site3278]”, the “gcPBM binding intensity (ln)” value worked out at 7.35. To “TATGTATGTATTAATGCGCACACAAAAAATAACAAT [CACACA_site8551]” belongs 9.09; to “AAAAATTAAATATAAAGTACAAAATTAAAATCTTAA [XGTACX_site931]”, 6.69; to “TTTCGTAACTATTTGTGTACATATATATATATATAT [XGTACX_site2920]”, 9.52. To “ATTTTCTTTTCCATAGTGCAATATAATTATCCATCA [GTGCAC_site9547]” belongs 8.36; to “ATAAATATATGAAATATACACACTTCTTTGGTATTA [CACACA_site456]”, 6.64.

Turning to “TATATATATATATACACACACACACCCATATATATA [CACACA_site2538]”, the “gcPBM binding intensity (ln)” value amounted to 9.33. To “CTGTATTCATAATTCACACAAATGGTTTATATGAAT [CACACA_site4315]” belongs 7.03; to “CATACATACAGATATACACACATATATAATAATATA [CACACA_site5477]”, 7.14. Under “CATATTTGCACTTTCACACATAAATATATAACTATA [CACACA_site6016]” stands 8.56; under “TTTAAACAAGGATCCACACACCCCAAAAAAAAAAGA [CACACA_site680]”, 7.28. To “TTTTTATTTTTGTAGTGTACTTTATTTTTTTTGTTT [XGTACX_site8887]” belongs 7.1; to “CAAAAGTATAATAATACACACACTTTAAAAGTTAAA [CACACA_site3343]”, 6.71.

TAGATTCTTGAATAAGTGCAAAATATAATATTTATT: the “gcPBM binding intensity (ln)” value is 8.09. To “AAAAATAAAATAAAATAAAATAAACATACCATATGT [CACACA_negctrl_site594]” belongs 6.92; to “TTACAAATGGTTTACACACACATAATTGTATCAATT [CACACA_site4167]”, 6.87. Regarding “TAATATATGAGAAATTGTACAGAAAGGAATATGCTT [XGTACX_site5300]”, the “gcPBM binding intensity (ln)” value stood at 7.06.

Turning to “TATATATGTTCAATATGTACATATATATAAGTGTAT [XGTACX_site5157]”, the “gcPBM binding intensity (ln)” value stood at 7.13. Under “AAGAAATATTTATACACACACACAAACATATATATA [CACACA_site1912]” stands 7.37; under “ATATTATTGTAGAAATGTACATATATATATATATAT [XGTACX_site1882]”, 9.27; under “AATACACAAATATATTGTACATATATATATATATAT [XGTACX_site2440]”, 9.59. As for “ACTTATTATTAATATTGTACTCTTGAAAATTGTGGA [XGTACX_site6315]”, the “gcPBM binding intensity (ln)” value worked out at 7.1.

Take “CATATATAAATATAAATATATATATATATATATATG [XGTACX_negctrl_site493]”: the “gcPBM binding intensity (ln)” value is 7.56. Under “ATATATATTTTTTAAACACACACATAAATATTTGTG [CACACA_site8936]” stands 7.24; under “TATATATATATATGTGCATGTTCCCCATGCTTCCAT [TGCATGCA_site366]”, 9.35; under “AAAATTATAATAATATGTACTTAAAAAATTTATATA [XGTACX_site632]”, 7.12. To “AATATATATATATATAGTACATATTTTTATTCATTA [XGTACX_site2156]” belongs 7.26; to “TATATGTATTTATATACACACATATTCTTTTGACAC [CACACA_site1206]”, 7.07; to “TTCTTCAAGGAAAACACATGCGCATTTTCACCAATT [TGCATGCA_site11]”, 7. Under “ATATATATATATATATGTACATATGTATATTTTTTT [XGTACX_site1299]” stands 9.07. For “ATTTATTTATTTATTTGTACATATAAATATATCAAA [XGTACX_site7383]”, the “gcPBM binding intensity (ln)” value amounted to 7.13.

For the sequence “TATATTTATTTATACACATGCATATTTTAAGGGCTC [TGCATGCA_site885]”, the “gcPBM binding intensity (ln)” value is 7.24. Under “CATATAATTATATATCGTACATATTAATATAATTAC [XGTACX_site401]” stands 7.04; under “AAAGATGTTATATATATGTATATATATATGTAATAT [TGCATGCA_negctrl_site386]”, 7.03.

With “AGTATACAGATATATACACACATATATTTATTTATA [CACACA_site6279]”, the “gcPBM binding intensity (ln)” value came out at 6.93.

For the sequence “AGATATAGGAAAATAATATATATATATTTTTTTTTT [CACACA_negctrl_site461]”, the “gcPBM binding intensity (ln)” value worked out at 6.93. To “ATATATATATATATATGTACTTATAAGGTATATTTA [XGTACX_site3327]” belongs 9.28; to “AAAAAGAAAAAACTTACACACATATATACAGACATG [CACACA_site550]”, 7.16. Regarding “TTATAATCCATAATTGCACACAATATATTCATATTT [CACACA_site3916]”, the “gcPBM binding intensity (ln)” value is 7.04.

For the sequence “AATATACAATAAAGGTGTACACATATATGATGCAAG [XGTACX_site7607]”, the “gcPBM binding intensity (ln)” value is 7.7.

Consider “TGGTTAATATGTGAAAGTACATATTATATTAAAATG [XGTACX_site2636]”, for which the “gcPBM binding intensity (ln)” value stood at 7. Under “TACAGATAATATATTGCACACGTCAGAATAATATAG [CACACA_site5036]” stands 7.31. To “TATAACTTTTTTATTACACACCTATGCAATATTATA [CACACA_site6570]” belongs 7; to “ATAAAATAAGATCTTTTTTTTTTTTTTTTCTTTTCT [XGTACX_negctrl_site73]”, 6.42. Regarding “AACAAATAAATAAATAAAAAGCAAATATGTCTATAT [GTGCAC_negctrl_site414]”, the “gcPBM binding intensity (ln)” value is 7.08. To “ATATATATATTCCACACACACACAAAAAAAAAAAAA [CACACA_site3648]” belongs 8.3; to “TTTTTTTTTTTTTTTGCACACAGGGTGTAGGACAAG [CACACA_site2842]”, 7.66.

For the sequence “CATTTGATAAGATACACACACAAGGAAAAAAATAAA [CACACA_site350]”, the “gcPBM binding intensity (ln)” value stood at 6.98.

Consider “TTATAATATCTATATATCTTTTACATTTATAAGTTT [CACACA_negctrl_site1473]”, for which the “gcPBM binding intensity (ln)” value was found to be 6.76. To “TATAATAATATTAACACACGTACAAAAGCAAACAAC [CACACA_site3494]” belongs 7.96; to “GTCTATTCAAAAAAGTGTACGGACATATAAACATAC [XGTACX_site6516]”, 7.68; to “TTAGCTATGATATATACACACCAACGAACGAAGAAA [CACACA_site6657]”, 7.12.

For the sequence “TGCAGTCTGGAGAAAAGTACATAGTATCTGGTATCT [XGTACX_site2545]”, the “gcPBM binding intensity (ln)” value was found to be 7.02. As to “TTTTTTTTTTTTTCAAGTACATAACTTACCCCTTTT [XGTACX_site6207]”, the “gcPBM binding intensity (ln)” value was 7.14. To “TTATATGCATAAAAACGTACAAAAATGTATTCATGT [XGTACX_site2215]” belongs 7.07; to “GTTATAGAAGCATTCACACACACACCCACATACACA [CACACA_site1465]”, 7.3; to “AAACGATTACTGTGTACACACATAGTTATAAACATA [CACACA_site5195]”, 7.

On to “GAATGTTAACGTTGCACACAAAAAAAAAGTATACAT [CACACA_site2415]”, for which the “gcPBM binding intensity (ln)” value came to 7.32. To “TTACATAATATATGTACACACGCAAATACTTAGAAT [CACACA_site320]” belongs 7.17; to “AGGATATGCAGACACACACACATATATATATATATA [CACACA_site2201]”, 9.61; to “TTTTTTAATAATAGGAAAATGAATATTATATCGAAT [TGCATGCA_negctrl_site543]”, 6.92. Regarding “ATATATGTGTATGTATGTACTCATTTTTGTATATAT [XGTACX_site490]”, the “gcPBM binding intensity (ln)” value amounted to 7.08. To “AAACAAAGAAAGAACACACATACACAATATACCTAC [CACACA_site2835]” belongs 6.89; to “TTATATATTTATATTTGTACGTATAAATTTTTTTTT [XGTACX_site2833]”, 7.02; to “TATTTTGAAAAAGTTGCACACAAAATTTAAAAAAAA [CACACA_site8470]”, 7.42. Under “CATTTAAATTATAAGTGTACACGATCATATTTCATC [XGTACX_site349]” stands 7.08.

As for “ATAATGATATATTATAAACACACAAAGATGAATATA [CACACA_site8914]”, the “gcPBM binding intensity (ln)” value was 6.86. To “CCAACATTTTTTAGAAGTACATTTTTATATTTATTA [XGTACX_site5179]” belongs 6.96; to “TATATATATATATATGTACACACATATATACCTTTC [CACACA_site8854]”, 9.28; to “AAATAAAAACATAACAGTACAGTTAACATTTTTATA [XGTACX_site3479]”, 6.89. To “AGGTACTTTTTTAAAACACACATATAATATATACAC [CACACA_site1065]” belongs 7.24; to “GATGGAAGGTGAAAGCGTACTTATTATAGTAATATA [XGTACX_site303]”, 6.85; to “TGTAATAATCTTACATGTACATACATATATTATATA [XGTACX_site4012]”, 7.33. To “TACATTCATGTGTATTGTACAAACTATTTTATAATA [XGTACX_site7744]” belongs 6.85; to “TATATAATATATATAGTGCATAAGTTCAAAAGAATA [GTGCAC_site9805]”, 8.73; to “GCATATTTTATAATTTTACACACCATATAAAATAAT [CACACA_site8904]”, 7.2.

For “TACATATTTTTTATGTGTACATATTTTTTATGTGTA [XGTACX_site443]”, the “gcPBM binding intensity (ln)” value stood at 7.14. Turning to “ACAATCCTAACGACATGTACAAATATATATATTTTT [XGTACX_site7335]”, the “gcPBM binding intensity (ln)” value came out at 7.09.

Take “AGAAGTTTAAAAAGCACACAAAAAAAAAAAAAAAGA [CACACA_site3309]”: the “gcPBM binding intensity (ln)” value was 6.85. To “AAATAAAATAAAAACATGCACACTTTATTTTTTTTA [CACACA_site2800]” belongs 8.9.

Turning to “AAAATCGTGTTCTGAATACACACTAATACAAAGTTG [CACACA_site3985]”, the “gcPBM binding intensity (ln)” value was determined as 6.85. To “ATTCATATATATTATACACACACATATATAAATATA [CACACA_site8228]” belongs 7.4; to “AAAAATACCTGAATATGTACATATGATCAATGGGCC [XGTACX_site887]”, 6.98.

Take “TAAAAATATAAATTTTGTACGTAAAAAATGGTTCTT [XGTACX_site1506]”: the “gcPBM binding intensity (ln)” value was 6.98. As to “TATTCTATATAATAATGTACGTGATTTAAATTTTCA [XGTACX_site6650]”, the “gcPBM binding intensity (ln)” value amounted to 6.98.

On to “TGACCGTTTTAAGAGTGTACAAAAAAAAAAAAAAAA [XGTACX_site4141]”, for which the “gcPBM binding intensity (ln)” value stood at 7.04. For the sequence “ATTCACATACATTACTTACACACCATATTAATATAT [CACACA_site459]”, the “gcPBM binding intensity (ln)” value was 7.43. To “TAAAAAATAAGATATACACACATATATATATATATA [CACACA_site2324]” belongs 9.42; to “TAACATATTAATAACATATTTATAATATATTAATAA [TGCATGCA_negctrl_site243]”, 6.67.
